According to PubChem BioAssay AID488969 (Vanderbilt High Throughput Screening Facility, 2010):
Whole data set: some 110,000 compounds, median “z-score” near -0.1, cut for the highest 2% near 2. The list shows a part of the results. Activity calls are given as the source filed them.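 The calls were made as follows: active = z-score in the third read window above 3 or below -3; inactive = the rest.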

These compounds were tested against Metabotropic glutamate receptor 8 (Rattus norvegicus) (UniProt P70579) (assay: rat mGluR8 modulators via GIRK flux, primary screen, cell-based, thallium flux, HTS (AID 488969)). Settings: HEK293 rat mGluR8, GIRK (G protein-gated inwardly rectifying potassium channel) thallium flux, FluoZin2; at 10 µM; stronger effect = higher value; submaximal glutamate (EC20) added with thallium.
UniProt P70579, sequence (P70579 whole entry, looked up): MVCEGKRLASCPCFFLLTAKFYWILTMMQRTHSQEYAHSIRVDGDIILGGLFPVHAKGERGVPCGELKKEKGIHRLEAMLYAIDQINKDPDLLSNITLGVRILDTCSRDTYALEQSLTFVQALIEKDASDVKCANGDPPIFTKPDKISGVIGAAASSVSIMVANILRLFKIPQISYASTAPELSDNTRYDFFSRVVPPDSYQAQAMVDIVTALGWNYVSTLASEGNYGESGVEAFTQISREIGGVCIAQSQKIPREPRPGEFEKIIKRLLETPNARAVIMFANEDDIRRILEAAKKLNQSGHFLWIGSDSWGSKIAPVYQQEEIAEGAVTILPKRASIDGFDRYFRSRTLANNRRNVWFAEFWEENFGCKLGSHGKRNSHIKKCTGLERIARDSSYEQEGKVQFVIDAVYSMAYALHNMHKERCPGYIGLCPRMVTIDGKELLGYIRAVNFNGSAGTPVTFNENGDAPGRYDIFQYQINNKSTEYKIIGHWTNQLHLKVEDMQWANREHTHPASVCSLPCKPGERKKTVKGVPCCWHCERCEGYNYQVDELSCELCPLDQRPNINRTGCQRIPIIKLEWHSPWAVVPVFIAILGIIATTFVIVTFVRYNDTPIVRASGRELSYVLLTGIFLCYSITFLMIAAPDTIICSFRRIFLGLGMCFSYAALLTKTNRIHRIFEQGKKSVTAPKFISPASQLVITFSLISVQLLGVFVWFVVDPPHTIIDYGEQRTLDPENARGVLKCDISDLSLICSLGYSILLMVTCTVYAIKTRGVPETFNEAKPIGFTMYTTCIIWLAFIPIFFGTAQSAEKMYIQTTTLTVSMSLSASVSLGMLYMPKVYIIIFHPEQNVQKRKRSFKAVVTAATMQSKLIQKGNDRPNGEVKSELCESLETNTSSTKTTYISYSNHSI
For `Cc1cc(C)c(OC2(c3ccccc3)OC(=O)c3ccccc32)c(C)c1` (stereo not given), the z-score was -0.25. `COCCNC(=O)CN(C(=O)CCC(=O)Nc1cc(C)on1)c1ccc(C)cc1C` showed a z-score of 1.08. `Cc1ccc(C(=O)O/N=C/c2ccc3c(c2)OCO3)cc1` was tested, and the z-score was -0.102. `CCOC(=O)n1ccc(C(=O)Nc2ccccc2F)n1` was tested, and the z-score was -0.0236. Compound `CC1CCN(c2[nH]c(=S)c(C#N)c3c2CCCC3)CC1` has a z-score of -0.0937. In the case of `COC(=O)c1cc(NC(=S)NCc2ccc(Cl)cc2)cc(C(=O)OC)c1`, the z-score was 0.1. For `O=S(=O)(NCc1ccc(Cl)cc1)c1ccc(Cl)nc1`, the z-score was 0.057. For `CC(=O)c1c(N2CCOCC2)nc(=S)n(Cc2ccccc2)c1C`, the z-score was 0.00352. Work on `Cc1ccccc1Cn1nnc2c1C(=O)c1ccccc1C2=O` yielded a z-score of 0.259. Work on `CC(C)CNC(=O)CSc1nc(-c2cccs2)cc(C(F)(F)F)n1` yielded a z-score of -1.24. `CCCn1c(SCC(=O)NC23CC4CC(CC(C4)C2)C3)n[nH]c1=O` was tested, and the z-score was -0.0293. For `CC1(C)Cc2c(sc(NC(=O)c3ccc(Br)o3)c2C#N)CO1`, the z-score was -0.949. For `Cc1cc(C)n2c(SCC(=O)Nc3c(C)n(C)n(-c4ccccc4)c3=O)nnc2n1`, the z-score was -0.189. Compound `CCOC(=O)C(CSCC(=O)c1ccc(Br)cc1)NC(=O)OC(C)(C)C` (stereo not given) has a z-score of -0.243. For `CC1(C)Cc2c(cnn2-c2ccccc2)C(=O)/C1=N\NC(=O)c1ccncc1`, the z-score was -0.198. Compound `CC(Oc1ccc(Br)cc1)C(=O)Nn1c(=S)[nH]c2ncccc2c1=O` (stereo not given) has a z-score of -0.579. With `CCc1cc(-c2n[nH]c(=S)n2C(C)c2ccccc2)cs1` (stereo not given) the z-score was 2.55. `COc1ccc(CNC(=O)c2ccc(CN3CCOCC3)cc2)cc1` showed a z-score of -0.000463. With `COc1ccc(C(=O)C(CN2CCCC2)c2ccccc2)cc1` (stereo not given) the z-score was 0.349. `O=C(CSc1cc(Cl)ccc1Cl)NCC1CCCO1` (stereo not given) showed a z-score of -0.0958. Work on `COc1ccc(-c2csc(N(CCCN3CCOCC3)C(=O)c3ccco3)n2)cc1` yielded a z-score of -0.222. `COC(=O)CSc1nc2ccc(NC(=O)CSc3nnnn3Cc3ccccc3)cc2s1` showed a z-score of -0.296. `Cc1cccc(CCNC(=O)C2CCC(=O)N2Cc2ccc(F)cc2)c1` (stereo not given) showed a z-score of -0.122. `COc1cc(NC(=O)c2cccs2)c(C(=O)OCC(=O)NCc2ccccc2)cc1OC` gave a z-score of 0.16. `Cc1ccc(-c2csc(/C(C#N)=C/Nc3ccccc3SC(F)(F)F)n2)cc1` gave a z-score of -0.319. `N#Cc1c(Nc2ccccc2)sc(C(=O)c2ccc(F)cc2)c1N` was tested, and the z-score was -0.289. Work on `O=C(COc1ccc([N+](=O)[O-])cc1)N(Cc1ccccc1)Cc1ccccc1` yielded a z-score of -0.0952. In the case of `CCCC(C)NC(=O)c1ccc(F)cc1` (stereo not given), the z-score was 0.0358. Compound `Cc1ccc(C(=O)N/C(=C/c2ccccc2)C(=O)NC(Cc2ccccc2)C(=O)O)cc1` (stereo not given) has a z-score of -0.249. For `O=C(Nc1nnc(SCc2cccc3ccccc23)s1)C1COc2ccccc2O1` (stereo not given), the z-score was -0.0973. `COc1ccccc1OCCC(=O)OCC(=O)NCc1ccccc1` showed a z-score of 0.33. `COc1ccc(OC)c(C2C(C(C)=O)=C(O)C(=O)N2CCc2ccc(OC)c(OC)c2)c1` (stereo not given) showed a z-score of -0.577. With `C=CCn1c(=O)[nH]c2cc(C(=O)N3CCN(c4cccc(Cl)c4)CC3)ccc2c1=O` the z-score was -0.302. For `Cc1cc(C(F)(F)F)c(C#N)c(=O)[nH]1`, the z-score was -0.0803. In the case of `COc1ccc(CNCc2cc3c(C(C)(C)C)nn(-c4ccccc4)c3[nH]c2=O)cc1`, the z-score was -1.08. `O=C(Nc1ncn[nH]1)c1c(Cl)ccc(Cl)c1Cl` gave a z-score of -0.166. Compound `O=C(Nc1nnc(CCS(=O)(=O)c2ccc3ccccc3c2)s1)c1ccc([N+](=O)[O-])cc1` has a z-score of -0.0917. `COC(=O)c1sccc1NC(=S)N1CCN(c2ccccc2F)CC1` was tested, and the z-score was -0.119. For `NC(=O)c1cnn(Cc2ccc(Cl)cc2)c1N`, the z-score was 0.39. Work on `CCN(CC)C(=O)CN(c1ccc(Cl)cc1)S(=O)(=O)c1ccccc1` yielded a z-score of -0.473. With `O=C(COC(=O)C1CC(=O)N(c2ccccc2)C1)c1ccccc1` (stereo not given) the z-score was -0.302. `Cc1ccc(S(=O)(=O)Nc2ccc3c4c(cccc24)CC3)c(C)c1` gave a z-score of 0.186. `Cn1c(=O)cc(OCCCC(=O)Nc2ccccn2)c2ccccc21` gave a z-score of -0.243. Compound `CC1=C(C)/C(=N\OS(=O)(=O)c2ccccc2)C=CC1=O` has a z-score of 0.632. In the case of `O=C(CCCn1c(=O)[nH]c2cc(Cl)ccc2c1=O)NC1CCCCCC1`, the z-score was -0.173. `CN(c1ccccc1)S(=O)(=O)c1cccc(NC(=O)CSc2nncs2)c1` showed a z-score of -0.209. `COc1cc(OC)cc(C(=O)N[C@H](C(=O)N2CCc3ccccc32)C(C)C)c1` gave a z-score of -0.177. `CCSc1nc(C2CC2)cc(-c2ccco2)c1C#N` gave a z-score of -0.0872. In the case of `COc1cc(NC(=S)NC(=O)c2c(OC)cccc2OC)ccc1NC(=O)c1cccs1`, the z-score was -0.249. With `Cn1c(CNc2ccccc2O)nc2ccccc21` the z-score was -0.0926. Work on `CCOC(=O)c1c(C)c(C(=O)N2CCc3ccccc3C2)c(C)n1CC` yielded a z-score of -1.91. `Cc1cccc(C)c1-n1c(C)cc(/C=N/NC(N)=S)c1C` was tested, and the z-score was -0.613. `CCCS(=O)(=O)n1nc(-c2ccc(C)cc2)cc1N` gave a z-score of 0.45. `Cc1cccc(-n2c(N)c(-c3nc4ccccc4n3C)c3nc4ccccc4nc32)c1` was tested, and the z-score was 0.68. Compound `Cc1cc(Cl)ccc1OCCCC(=O)N1CCCc2ccccc21` has a z-score of -0.177. Compound `CC(C)Cn1c(=O)c2c(c3ccccc31)OC(C)C(=O)N2` (stereo not given) has a z-score of -0.811. With `O=C1C2ON(c3ccccc3)C(c3ccncc3)C2C(=O)N1c1ccc(Br)cc1` (stereo not given) the z-score was 0.171. For `CCN1CCCC1CNC(=O)c1ccc2c(=O)n(CCOC)c(=O)[nH]c2c1` (stereo not given), the z-score was 0.53. `Cc1ccc(CNC(=O)c2ccc(NC(=O)CCS(=O)(=O)c3cccs3)cc2)cc1` gave a z-score of -0.474. `CCS(=O)(=O)CCSc1nc2c(cc1C#N)CCCC2` was tested, and the z-score was -0.298. Compound `Cc1cccc(NC2=NCC(=O)N2CCc2ccccc2)c1` has a z-score of -0.423. In the case of `O=C(NCc1ccc2c(c1)OCO2)C1CC(=O)N(c2ccc(O)cc2)C1` (stereo not given), the z-score was 0.604. `COc1ccc(NC(=O)C(c2ccccn2)N(C(C)=O)c2ccc(C)cc2)cc1` (stereo not given) gave a z-score of 0.0764. Compound `COCCN(Cc1cc2cccc(C)c2[nH]c1=O)C(=O)c1ccccc1` has a z-score of 0.694. `CCC(=O)Nc1sc2c(c1C(N)=O)CCC2` gave a z-score of 0.815. In the case of `CN1C(=O)N(c2ccccc2)C(Nc2nncs2)C1(C)C` (stereo not given), the z-score was -1.59. Compound `Cc1cccc(-c2cc3c(nn2)-c2ccccc2C3=O)c1` has a z-score of -0.268. `CCOc1ccc(S(=O)(=O)Nc2cccc(N(C)S(C)(=O)=O)c2)cc1` showed a z-score of -0.0173. In the case of `CC1CC(=O)Nc2ccc([N+](=O)[O-])cc2N1C` (stereo not given), the z-score was -0.291. For `CCOC(=O)c1sc(NC(=O)CSc2nc3ccccc3o2)c(C(=O)OCC)c1C`, the z-score was -0.175. `Cc1c(C(=O)N2CCOCC2)[nH]c2c1C(=O)CC(c1ccc(Cl)cc1)C2` (stereo not given) gave a z-score of -0.803. `O=c1c(Cl)c(N/N=C/c2ccc(Cl)cc2)cnn1-c1ccccc1` showed a z-score of -0.166. With `COCCNC(=O)CSc1nnc2c(Cl)cc(Cl)cn12` the z-score was 0.0414. Compound `COc1cccc(-n2nnnc2SCC(=O)NC2CCCC2)c1` has a z-score of -0.27. With `O=C(COC(=O)c1ccccc1C(=O)c1ccc(Cl)cc1)NCc1ccccc1` the z-score was -0.106. For `CN(Cc1ccccc1)C(=O)NC1CCCCC1`, the z-score was -0.0271. Compound `COc1ccc(NC(=O)CCC(=O)c2ccc(-c3ccccc3)cc2)cc1` has a z-score of -0.0832. For `Cc1c(C(=O)N(C)C)sc(NC(=O)c2cccc([N+](=O)[O-])c2)c1C#N`, the z-score was -0.178. With `CC1=NOC(=O)/C1=C/c1ccc(N(C)C)cc1` the z-score was -0.24. Work on `CN(C)C(=O)c1cn(-c2ccccc2)c(=O)c2ccccc12` yielded a z-score of -0.0584. In the case of `COc1ccc(C)cc1NC(=O)CN1CCN(CC(=O)Nc2ccccc2F)CC1`, the z-score was 0.0527. `COCCn1c(-c2ccccc2)nc(=S)c2c1CC(C)(C)OC2` was tested, and the z-score was -0.0646. Work on `Cc1cccc(N2C(=O)CC(SC(=Nc3ccccc3)Nc3ccccc3)C2=O)c1` (stereo not given) yielded a z-score of -0.184. With `Cc1ccc(-c2nc(N/N=C/c3cccc([N+](=O)[O-])c3)c3ccccc3n2)cc1` the z-score was -0.0526. In the case of `CCc1ccc(C(=O)CC2(O)C(=O)N(CN3CCOCC3)c3ccccc32)cc1` (stereo not given), the z-score was -0.735. For `OCCCCNCc1ccc(OCc2ccc(Cl)cc2)cc1`, the z-score was 0.823. With `CC(C)(O)C#Cc1ccc(C(=O)NCc2ccccc2)s1` the z-score was -0.37. For `CCOC(=O)Cc1csc(NC(=S)NC(=O)c2ccccc2)n1`, the z-score was active: 10.6. For `COc1ccc(CCNC(=O)c2ccc(CS(=O)(=O)c3ccc(C)cc3)o2)cc1OC`, the z-score was 0.126. `CCOC(=O)c1cc(-c2ccccc2)sc1N` was tested, and the z-score was -0.122. `CCCOC(=S)N/C(=N\S(=O)(=O)c1ccccc1)c1ccccc1` gave a z-score of 1.24. `CCC(=O)NC(=S)Nc1ccc(NC(=O)c2cccc([N+](=O)[O-])c2C)cc1` was tested, and the z-score was -0.473. Work on `CCn1cc(C(=O)OCC(=O)c2cc(C)n(-c3cccc(C(F)(F)F)c3)c2C)c(=O)c2ccc(C)nc21` yielded a z-score of -2.43. `COc1cc(OC)cc(-c2cc3nc(C)c(CCC(=O)O)c(C)n3n2)c1` showed a z-score of -0.456. `CCN(CC)C(=O)Nc1ccccc1C` was tested, and the z-score was -0.262. `COc1ccc(-c2cnc(SCC(=O)Nc3ccc4c(c3)OCO4)n2Cc2ccco2)cc1` was tested, and the z-score was -0.0521. In the case of `CCN(CC(=O)NC1CCS(=O)(=O)C1)c1ccc(S(C)(=O)=O)cc1[N+](=O)[O-]` (stereo not given), the z-score was 0.469. `O=C(CN1CCN(C2CCCCC2)CC1)c1ccc2cc[nH]c2c1` showed a z-score of 0.203. `COc1ccccc1C1C=C(c2ccc(C)cc2)Nc2nnnn21` (stereo not given) was tested, and the z-score was -0.129. With `COc1ccc(-n2c(C)c([N+](=O)[O-])c3ccc(O)c(CN(C)C)c32)cc1` the z-score was -0.741. `Cc1noc(C)c1C(=O)NCCc1ccccc1` was tested, and the z-score was 0.33. In the case of `Cc1ccc(S(=O)(=O)N2CCCSCC2)cc1`, the z-score was 0.552. `COc1ccc(S(=O)(=O)NC(C)C)cc1C(=O)NC1CCCCC1` was tested, and the z-score was -0.176. `O=C(Nc1cccc2c1C(=O)NC2=O)c1ccc(S(=O)(=O)N2CCCC2)cc1` was tested, and the z-score was -0.0355. `CCSc1nnc(NC(=O)C(C)(C(F)(F)F)C(F)(F)F)s1` gave a z-score of -0.3. With `CCc1c(O)nc2sc3ccccc3n2c1=O` the z-score was -0.0995. `COC(=O)c1ccc(C(=O)OC)c(NC(=O)CSCc2ccc(Cl)cc2)c1` showed a z-score of -0.149. `COC(=O)c1ccccc1NC(=O)CN(C1CCCCC1)S(C)(=O)=O` was tested, and the z-score was -0.133. `CCOc1ccc2c(c1)OC(c1ccccc1)(C(F)(F)F)NC2=O` (stereo not given) gave a z-score of -0.247. `FC(F)Sc1ccc(NC(=S)NCC2CCCCC2)cc1` showed a z-score of -0.233.
